# From the supplement of paper PMC4166925
# ± gives the standard deviation of the averaged measurements. Over roughly 33,000 sequences, “E-score (dimensionless, -0.5 to 0.5)” has its median near -0.046; the highest 2% begin near 0.36. The list shows a part of the results.
# System: T1, SpTbr T-box DNA-binding domain (GST fusion)
# T1 sequence: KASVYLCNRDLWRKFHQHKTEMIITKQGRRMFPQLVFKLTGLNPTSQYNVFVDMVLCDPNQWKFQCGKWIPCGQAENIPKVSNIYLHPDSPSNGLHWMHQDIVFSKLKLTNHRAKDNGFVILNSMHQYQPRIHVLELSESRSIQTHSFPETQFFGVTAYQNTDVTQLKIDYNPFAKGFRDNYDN
# Assay: PBM E-score of 8-mer (E-score (dimensionless, -0.5 to 0.5)); Tbr is Tbrain of the sea star Patiria miniata (Pm) or the sea urchin Strongylocentrotus purpuratus (Sp); higher = stronger binding preference; most listed sequences are background and not binding sites
# Conditions: the construct has about 5 more residues each side
# Method in brief: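 Each ungapped 8-mer received an enrichment E-score from the Universal PBM Analysis Suite, averaged over duplicate arrays. The proteins were Tbr T-box DNA-binding domains, covering the whole T-box plus about five flanking residues, fused to GST and expressed in BL21 E. coli at 20 °C before glutathione affinity purification. Universal Agilent oligonucleotide arrays were made double-stranded by primer extension and incubated with 200 nM protein in PBS (pH 7.5). The arrays were then scanned and quantified, and every 8-mer was scored from probe intensities.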
row,Sequence,PBM E-score of 8-mer
1,GTGTCCTA,0.142 ± 0.056
2,ATTCCACG,0.012 ± 0.05
3,TGACACCA,0.419 ± 0.0076
4,CGCCCAAG,-0.0715 ± 0.092
5,TCGAATAA,-0.203 ± 0.039
6,CCAGACAC,0.241 ± 0.024
7,CTCGGTCC,-0.155 ± 0.055
8,CGGTTACA,0.0905 ± 0.0011
9,CGTGATAG,0.226 ± 0.0084
10,CATTACCC,-0.181 ± 0.074
11,CATCGCCC,0.0587 ± 0.042
12,CTAAACTA,-0.191 ± 0.013
13,ACAGGCTA,-0.143 ± 0.029
14,TGATTAAA,-0.0693 ± 0.12
15,ACCGAGAT,-0.0126 ± 0.015
16,ATTTTAAG,-0.282 ± 0.051
17,AAGGGCGT,0.249 ± 0.011
18,AGGTAACG,0.0673 ± 0.013
19,CATTTTCG,-0.139 ± 0.059
20,CACTCTCG,0.262 ± 0.055
21,GGATAGAA,-0.317 ± 0.024
22,CCTGCGAG,0.137 ± 0.049
23,GCTAGACA,0.164 ± 0.077
24,GCCCTGCA,-0.219 ± 0.055
25,CGGCTGTA,0.0467 ± 0.0066

row,Sequence,PBM E-score of 8-mer
1,CTCCTGAA,-0.199 ± 0.025
2,AACCGAAG,0.0737 ± 0.023
3,AGACGTAA,-0.0693 ± 0.038
4,AAGATACC,-0.104 ± 0.022
5,ATCCATTG,-0.222 ± 0.026
6,GGCATGGA,-0.123 ± 0.088
7,AGCGCCAG,0.157 ± 0.026
8,CTGAATGC,-0.183 ± 0.015
9,ACTCAGGC,-0.284 ± 0.018
10,CCTGTCAA,0.328 ± 0.025
11,AGCACCCT,0.202 ± 0.025
12,GTTATGTA,0.0836 ± 0.028
13,AGGAGCTG,0.103 ± 0.044
14,AAGGGCGA,-0.00873 ± 0.016
15,TCCAGGGA,-0.1119 ± 0.00043
16,CACACTCC,0.402 ± 0.0059
17,ACAGGGCG,0.127 ± 0.029
18,ATCCCGTG,-0.0915 ± 0.02
19,AACATATC,0.0176 ± 0.086
20,CGGGAGAC,0.00517 ± 0.026
21,GCTCGGGA,-0.254 ± 0.0081
22,ATGTGTGA,0.4838 ± 0.001
23,ATCTTTCC,-0.165 ± 0.013
24,GATACGTA,-0.0311 ± 0.014
25,AAGTAATC,-0.109 ± 0.1

row,Sequence,PBM E-score of 8-mer
1,CCATGCCA,-0.128 ± 0.06
2,AGTGAAAG,0.156 ± 0.0046
3,CAAGGTCA,0.116 ± 0.031
4,ATTCTCGC,0.325 ± 0.019
5,CAGGATAG,-0.119 ± 0.093
6,AGGTGCCC,0.00863 ± 0.0099
7,ATGAACAT,0.0289 ± 0.022
8,CAAACTAG,-0.123 ± 0.087
9,ATCTTGGC,-0.191 ± 0.029
10,GAACAGTC,-0.0343 ± 0.069
11,AGAAAGAG,-0.0877 ± 0.019
12,CCCGTTTC,-0.0892 ± 0.0065
13,TACGGTGA,0.0931 ± 0.046
14,GCCAGGGC,-0.144 ± 0.073
15,CTCTGCCC,-0.186 ± 0.043
16,AAGGACTA,-0.166 ± 0.0059
17,AGCGGGCC,-0.229 ± 0.0036
18,CGCCCTCC,-0.17 ± 0.027
19,CCGAACAA,-0.183 ± 0.053
20,AAGGTTGA,0.00741 ± 0.018
21,CTCAGCAG,-0.03005 ± 1.4e-05
22,CGTTCACA,0.418 ± 0.0069
23,CACCAGGA,0.114 ± 0.059
24,AGGGGGAA,-0.16 ± 0.019
25,AATCTAGT,-0.111 ± 0.061

row,Sequence,PBM E-score of 8-mer
1,ACTTCTTC,0.0991 ± 0.03
2,TCAGAAAA,-0.122 ± 0.12
3,CCCCTCTA,-0.134 ± 0.0071
4,CCTGCTGA,-0.181 ± 0.031
5,AAGGTCAC,0.164 ± 0.036
6,AACTACAG,0.0252 ± 0.038
7,GAGCAAGC,-0.0346 ± 0.062
8,CGTATTAC,0.00581 ± 0.029
9,GACCCTAA,-0.179 ± 0.003
10,GAGTTTAA,-0.00764 ± 0.1
11,CGCTTGAC,0.136 ± 0.0033
12,ATTCAGGG,-0.0548 ± 0.041
13,CGCATTGA,0.0931 ± 0.044
14,CTCTGAAC,-0.231 ± 0.017
15,CGGATGAC,-0.0343 ± 0.14
16,ATCGGACG,-0.105 ± 0.0022
17,GGTGAAGA,0.231 ± 0.026
18,ACTAGCGG,-0.0663 ± 0.0081
19,CAAGGAAA,0.000855 ± 0.069
20,TAGAGTCA,-0.17 ± 0.0056
21,ATGCTCCC,0.00753 ± 0.028
22,GTTTTCCA,-0.179 ± 0.017
23,TATGTTAA,0.0661 ± 0.067
24,GGCCCTGA,-0.106 ± 0.074
25,CGCGACTA,0.259 ± 0.023

row,Sequence,PBM E-score of 8-mer
1,AAAAGACT,-0.177 ± 0.041
2,AATGTCAT,-0.162 ± 0.031
3,GACGAGAC,0.0153 ± 0.01
4,CGCTCTAA,-0.0375 ± 0.00095
5,ATACAGCA,-0.117 ± 0.039
6,TACTTGGA,-0.311 ± 0.035
7,GTGACGGA,0.2267 ± 0.002
8,CAGCCGGG,-0.0945 ± 0.0037
9,CGCAGGAC,-0.139 ± 0.0089
10,CATATATG,0.0932 ± 0.0065
11,TAGGGCCA,-0.169 ± 0.046
12,AAAAGTTG,0.0821 ± 0.016
13,TAGGCTGA,0.0791 ± 0.02
14,CGCCAATC,0.146 ± 0.034
15,ACCGTCAG,0.0786 ± 0.027
16,CAAACTCA,-0.0448 ± 0.042
17,CCCACTCG,0.05 ± 0.13
18,ATTAGTTC,-0.146 ± 0.024
19,ACCTTTCC,-0.0357 ± 0.046
20,CGAGGGGC,-0.107 ± 0.03
21,ACCTTTTG,0.238 ± 0.033
22,CTCCAGTC,-0.1708 ± 0.00062
23,CGGAAACG,0.00523 ± 0.026
24,AGTGAGGG,0.0688 ± 0.0054
25,ACGGCATA,-0.1383 ± 0.00093

row,Sequence,PBM E-score of 8-mer
1,ATCCACTC,-0.118 ± 0.0075
2,TCGAGCCA,-0.161 ± 0.028
3,AACAGTTG,0.195 ± 0.029
4,ATTAGCGC,0.289 ± 0.017
5,ACCCGCCT,0.0371 ± 0.066
6,AAGGACTC,-0.099 ± 0.055
7,AAACGTAG,-0.0977 ± 0.12
8,GCAATTAA,-0.0315 ± 0.07
9,AAGGAGAG,-0.168 ± 0.0067
10,CAAACATA,-0.183 ± 0.067
11,ATGTTCGG,0.0147 ± 0.054
12,ACGTGATC,0.00617 ± 0.037
13,CTATACTA,-0.199 ± 0.015
14,AGACCAAA,-0.0338 ± 0.0097
15,ACCTAACT,0.0942 ± 0.077
16,GAATCCGA,-0.0574 ± 0.021
17,GATGTGGA,-0.0591 ± 0.0056
18,AGGTGAAC,0.164 ± 0.025
19,CTTCGTAC,-0.0104 ± 0.045
20,CCTCAACG,-0.109 ± 0.013
21,GACCCCCA,-0.028 ± 0.043
22,ATCATTCC,-0.162 ± 0.084
23,CTACAAAC,-0.0247 ± 0.076
24,AATCTCGC,0.292 ± 0.0066
25,AAGCACAA,-0.106 ± 0.019

row,Sequence,PBM E-score of 8-mer
1,CAGCATTA,-0.121 ± 0.096
2,CTAGCCAG,-0.134 ± 0.031
3,GGCTATAC,-0.149 ± 0.033
4,AACTTTTG,-0.0908 ± 0.036
5,AAAGCTAA,-0.142 ± 0.018
6,GGACCTGA,-0.266 ± 0.025
7,ATGCAGGG,-0.255 ± 0.0049
8,CGATCGCA,0.288 ± 0.06
9,AGGTCCGC,0.0985 ± 0.028
10,CGCTGGGC,-0.0665 ± 0.028
11,ACAAATAA,-0.0377 ± 0.058
12,CCACTCGC,0.151 ± 0.036
13,CAGTCGGG,-0.0614 ± 0.018
14,TACGCACA,0.0509 ± 0.00076
15,AGGATGCA,-0.33 ± 0.057
16,ATCCGTTA,-0.104 ± 0.011
17,AGTAATCA,0.0335 ± 0.1
18,CAAAGACA,-0.0594 ± 0.0018
19,ACGTCCTA,-0.17 ± 0.032
20,GAACGCAC,-0.0534 ± 0.022
21,TATTCGGA,-0.284 ± 0.034
22,GAACCGGA,-0.198 ± 0.015
